# Reference: article PMC6919601, “Identification of Plasmodium dipeptidyl aminopeptidase allosteric inhibitors by high throughput screening” (PLoS ONE, 2019)
# “And” between values parts separate entries of the source, which are not always exact repeats. Identical values can stand only once. Out of some 110,000 compounds screened, about 230 (0.21%) showed an effect of 50% or more. This is one part of the list.
# Biological target: DPAP1 (Plasmodium falciparum, UniProt Q8IIJ9)
# Assay: primary screen, percent inhibition; read by cleavage of a fluorogenic dipeptide substrate; higher = more effect of the substance
# Set-up: species or system P. falciparum D10 trophozoite lysates; single well
# 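Further: 30 min substrate incubation versus DMSO and 10 µM JCP410 controls.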
# Sequence of DPAP1 (Q8IIJ9 whole entry, looked up): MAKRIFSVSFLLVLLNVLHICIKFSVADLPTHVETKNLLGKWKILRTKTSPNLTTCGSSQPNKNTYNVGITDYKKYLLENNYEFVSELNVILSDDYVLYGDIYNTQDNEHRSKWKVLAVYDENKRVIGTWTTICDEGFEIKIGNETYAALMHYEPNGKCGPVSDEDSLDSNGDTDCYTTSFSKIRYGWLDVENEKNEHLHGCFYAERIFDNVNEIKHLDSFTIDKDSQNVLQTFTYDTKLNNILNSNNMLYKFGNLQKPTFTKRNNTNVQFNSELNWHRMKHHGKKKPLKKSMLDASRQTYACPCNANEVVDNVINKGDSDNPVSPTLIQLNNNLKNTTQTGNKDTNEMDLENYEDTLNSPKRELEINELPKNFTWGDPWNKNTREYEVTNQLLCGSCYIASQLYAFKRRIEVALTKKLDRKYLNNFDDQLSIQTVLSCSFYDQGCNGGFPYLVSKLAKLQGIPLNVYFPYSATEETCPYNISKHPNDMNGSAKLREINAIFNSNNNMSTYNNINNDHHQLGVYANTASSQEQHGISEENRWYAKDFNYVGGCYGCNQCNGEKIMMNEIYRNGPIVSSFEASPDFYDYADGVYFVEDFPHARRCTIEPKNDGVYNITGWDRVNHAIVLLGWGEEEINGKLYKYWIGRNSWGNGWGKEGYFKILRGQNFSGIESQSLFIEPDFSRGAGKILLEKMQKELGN
row,Structure (SMILES),% Inhibition @ 10 uM
1,Cn1c2c(c(=O)n(C)c1=O)C(c1c(F)cccc1Cl)CC(=O)N2 (centres unmarked),0.895%
2,CCc1ccc(-c2[nH]nc3nc(-c4ccccc4)cc(C(=O)O)c23)cc1,-6.37%
3,Cc1cc(C)nc(N2CC(=O)N(C)C2=N)n1,-0.711%
4,Cc1ccc2c(c1)cc1c(=O)n(CC(=O)NC3CCCC(C)C3C)nc(C)n12 (centres unmarked),-7.47%
5,Cc1ccc(Nc2nc(-c3ccc(Br)cc3)cs2)cc1Cl,-3.79%
6,O=C(CCCCCNc1ccccc1)Nc1ccccc1,16.5%
7,O=C(O)c1ccccc1N1C(=O)C2CC=CCC2C1=O (centres unmarked),-3.69%
8,Cc1ccc2[nH]ncc2c1,1.68%
9,COc1ccc(/C=N/n2cnc3c4cc(OC)ccc4nc-3c2O)cc1,-5.28%
10,C=CCOC(=O)C1=C(C)NC(=O)NC1c1ccccc1F (centres unmarked),1.13%
11,CO/C(O)=C1\C(C)=NC2=C(C(=O)CC(c3ccccc3)C2)C1c1ccc(C)o1 (centres unmarked),5.7%
12,CC1CCCCN1C(=O)Nc1ccccc1 (centres unmarked),-0.13%
13,CN1C(C(=O)NC(C)(C)C)=CC(c2ccc(F)cc2)=NS1(=O)=O,-1.06%
14,COCCCNC(=O)C1CCCN(S(=O)(=O)N2CCC(C)CC2)C1 (centres unmarked),-6.88%
15,CC1(C)CC(=O)c2c(nc3c(c2-c2ccccc2)C(=O)CC(C)(C)C3)C1,1.24%
16,Cc1cccc(NC(=O)c2sc3nc4n(c(=O)c3c2C)CCCCC4)n1,-2.88%
17,O/N=C1\c2ccccc2-c2c(F)c(F)c(F)c(F)c21,-1.97%
18,CCn1c(=N)n(CC(=O)c2cccs2)c2ccccc21,-0.0619%
19,Cc1ccc(Cc2nnc(C(=O)NCc3ccco3)o2)cc1,-7.42%
20,O=C(O)C1CCC(CNCc2ccccc2Cl)CC1 (centres unmarked),-1.99%
21,CCCN(CC(=O)Nc1c(C)cccc1CC)C(=O)SCC,0.214%
22,COc1cc(OC)c(OC)cc1CN1CCN(C2CCC(C)CC2)CC1 (centres unmarked),-4.69%

row,Structure (SMILES),% Inhibition @ 10 uM
1,CCCOc1ccc(C(=O)NCCCN(C)C)cc1,5%
2,CCc1ccc(-c2nc(CSCC(=O)NCCCSCCC(C)C)c(C)o2)cc1,-6.4%
3,COc1ccc(NC(=O)c2cc(Cl)ccc2OC)c(OC)c1,-0.884% and -6.34%
4,COc1ccc(NC(=O)c2ccc(C(F)(F)F)cc2)cc1,-5.3%
5,CCc1ccc(CN2CCN(Cc3ccccc3)CC2)cc1,-0.0404%
6,COC(=O)C1=NN(c2nc(C)c(OC)[nH]2)C(=O)C1,-0.0108%
7,Cc1cc(C)c(OCC(=O)N(Cc2ccccc2F)C2CCS(=O)(=O)C2)c(C)c1 (centres unmarked),0.366%
8,O=c1c2ccccc2nc(NC2CCCCC2)n1-c1ccccc1,5.48% and -3.45%
9,c1ccc(CN2CCN(Cc3cccnc3)CC2)cc1,-6.82%
10,CC(NC(=O)CCN1C(=O)c2ccccc2C1=O)c1ccc2c(c1)CCCC2 (centres unmarked),-2.29%
11,N#Cc1ccccc1NC(=O)c1cccc(C(=O)Nc2ccccc2C#N)c1,3.32%
12,COCCNC(=O)C1=C(C)C(=O)OC12CCC(C)CC2 (centres unmarked),-5.58%
13,CCN1CCN(c2cc(SC(C)C)nc(-c3ccc(OC)cc3)n2)CC1,2.08%
14,CCOC(=O)C1=CN(C)C=C(C(=O)OCC)C1c1cc(OC)c(OC)cc1OC,0.219%
15,COc1ccc(S(N)(=O)=O)cc1C(=O)NCCCN1CCN(c2cccc(Cl)c2)CC1,-16.5%
16,N#CCc1ccc(NC(=O)COc2ccc3c(c2)CCC3)cc1,5.39%
17,N#CC1=C(N)Oc2ccc3ccc(O)cc3c2C1c1ccc(Cl)cc1 (centres unmarked),1.35%
18,COc1cccc(/C=C(\NC(=O)c2ccccc2)C(=O)Nc2cccc(O)c2)c1OC,-5.14%
19,CC(C)c1ccccc1OCC(=O)Nc1sc2c(c1C(N)=O)CCCC2,1.57%
20,COc1ccc2c(CNCc3cccc(Cl)c3)c(C(=O)O)n(Cc3ccccc3F)c2c1,1.17%
21,COc1ccc(Cl)cc1NC(=O)CN(CCc1ccccc1)S(C)(=O)=O,1.17%
22,COc1ccccc1C1CC(=O)N=C(NC(C)=O)N1 (centres unmarked),-0.212%

row,Structure (SMILES),% Inhibition @ 10 uM
1,Cc1nn(-c2ccccc2)c(O)c1-c1nnc2c(=O)n(C)c(=O)n(C)c2n1,2.57%
2,Cc1ccc(C(C(=O)NC2CCCCC2)N2CCOCC2)cc1 (centres unmarked),2.06%
3,O=C(CSCc1cccc(Br)c1)NC1CCCCC1,6.31%
4,CCOC(=O)N1CCN(C(=O)c2ccc(N(C)S(=O)(=O)c3ccccc3)cc2)CC1,-3.76%
5,O=C(NCCO)c1nc[nH]c1C(=O)NCCO,8.68%
6,COc1ccc2c(c1)OCC/C2=N\OC(=O)c1ccccc1F,3.16%
7,CC(C)(C)c1ccc(OCC(=O)Nc2cccc3nsnc23)cc1,-1.82%
8,Cc1oc(-c2cccc(Cl)c2)nc1CS(=O)(=O)CC(=O)NC(C)c1ccccc1 (centres unmarked),9.33%
9,Cc1nc(-c2ccc(C(=O)NC(CC(C)C)C(=O)NCC#N)cc2)cs1 (centres unmarked),-5.64%
10,Cc1ccc(C(CC(=O)N2CCNCC2)c2ccccc2)c(O)c1C (centres unmarked),3.87%
11,CC(=O)N1CCN(c2nc(-c3ccccc3)c3cc(C)ccc3n2)CC1,-6.69%
12,CCOC(=O)c1cc2c(=O)n3ccccc3nc2n(CCOC)/c1=N\C(=O)CCc1ccccc1,-0.363%
13,Cc1sc(NC(=O)C(F)(F)F)nc1C12CC3CC(CC(C3)C1)C2,-5.49%
14,COc1ccc(N2CCN(Cc3ccc(C(C)C)cc3)CC2)cc1,0.605%
15,COCc1cc(CN2CCC(C)CC2)c(O)c2ncccc12,-2.28%
16,Cc1ccc(C(=O)c2cnc3cc4c(cc3c2S(=O)(=O)c2ccccc2)OCCO4)cc1,-8.2%
17,CC(C)CN1C(=O)c2ccccc2C(C(=O)NC(C)CCc2ccco2)C1c1cccs1 (centres unmarked),1.14%
18,COc1ccc(C2=NN(C(=O)c3cccs3)C(c3ccccc3F)C2)cc1OC (centres unmarked),6.52%
19,CCC1(C)CC(=O)c2c(ccc3oc(C(=O)Nc4ccc(Br)cn4)c(C)c23)O1 (centres unmarked),1.22%
20,CC1CN(CC2CC3C=CC2C3)CC(C)O1 (centres unmarked),3.48%
21,CCOCCCNC(=O)/C(C#N)=C/c1c(Oc2ccccc2C)nc2ccccn2c1=O,3.63%
